{"source": "PubChem BioAssay (NCATS)", "note": "The inconclusive results got no clear call from the source; some entries with a clear call stand among them for comparison. Where the call is inconclusive, the potency comes from a doubtful curve fit. The source made the active and inactive calls. The call rests on the fitted dose curve; in most records, active means well fitted inhibition curve with a large enough effect; inconclusive means small, poorly fitted or top-dose-only effect; inactive means flat fitted curve, though single readings scatter. Potency means the concentration at half of the fitted maximal effect; tags describe the fitted curve by direction and shape."}
{"experiment": "Primary qHTS for inhibitors of nuclear receptor binding SET domain protein 2 (NSD2) in an isogenic RCH-ACV NSD2 p.E1099K mutant (9B) (AID 1645876); further: nearly all actives have a fitted effect of over 70% in size", "conditions": "RCH-ACV NSD2 E1099K (9B) viability, CellTiter-Glo, 72 h; series mostly up to 44.9 µM"}
{"smiles": "C[C@@H]1CCC2[C@@H](C)C(=O)OC3O[C@@]4(C)CCC1[C@]32OO4", "note": "(stereo partly drawn)", "Potency": "inconclusive: 5.15 µM [inhibitor, partial curve]"}
{"smiles": "Cc1nc2ccccc2c(=O)n1-c1ccccc1Cl", "Potency": "inconclusive: 23.8 µM [inhibitor, partial curve]"}
{"smiles": "CCCC(C)C1(CC)C(=O)N=C(S)NC1=O", "note": "(stereo not drawn)", "Potency": "inconclusive: 29.9 µM [inhibitor, single point]"}
{"smiles": "CN(C(=O)C(c1ccccc1)c1ccccc1)[C@H](CN1CC[C@H](O)C1)c1ccccc1", "Potency": "inconclusive: 20.5 µM [inhibitor, single point]"}
{"smiles": "CCCN(CCC)CCc1c[nH]c2ccccc12", "Potency": "inconclusive: 24.1 µM [inhibitor, partial curve]"}
{"smiles": "CN(C)CCc1c[nH]c2ccccc12", "Potency": "inactive"}
{"smiles": "C[C@]12C=CC(=O)C=C1CC[C@@H]1[C@@H]2CC[C@@]2(C)[C@H]1CC[C@]2(C)O", "Potency": "active: 23.7 µM"}
{"smiles": "CC[C@@H](C)[C@H]1C(=O)O[C@H](C(C)C)C(=O)N(C)[C@@H](C(C)C)C(=O)O[C@H](C(C)C)C(=O)N(C)[C@@H](C(C)C)C(=O)O[C@H](C(C)C)C(=O)N1C", "Potency": "active: 2.16 µM"}
{"smiles": "COC1CC(=C(c2cccs2)c2cccs2)C[N+](C)(C)C1", "note": "(stereo not drawn)", "Potency": "inconclusive: 26.6 µM [inhibitor, single point]"}
{"smiles": "C=C1[C@@H](C)[C@H]2[C@H](Cc3ccccc3)NC(=O)[C@]23[C@H](OC(C)=O)/C=C/[C@](C)(O)C(=O)[C@@H](C)C/C=C/[C@H]3[C@@H]1O", "Potency": "active: 0.728 µM"}
{"smiles": "CC[N+]1(CCOC(=O)C(O)(c2ccccc2)c2ccccc2)CCCCC1", "Potency": "inactive"}
{"smiles": "OCCCBr", "Potency": "inconclusive: 43.3 µM [inhibitor, single point]"}
{"smiles": "C[C@H]1CN(Cc2ccc(CC(=O)N3CCC(Nc4cccc(F)c4)CC3)cc2)CCN1", "Potency": "inconclusive: 18.3 µM [inhibitor, single point]"}
{"smiles": "Cc1ccc(N=CN(C)C=Nc2ccc(C)cc2C)c(C)c1", "Potency": "inactive"}
{"smiles": "CC1=CC(=O)[C@@H](O)[C@]2(C)C3[C@@H](O)[C@@H]4OC(=O)[C@@H]([C@H]4C)[C@]3(C)C(=O)[C@H](O)[C@@H]12", "note": "(stereo partly drawn)", "Potency": "inconclusive: 20.1 µM [inhibitor, single point]"}
{"smiles": "C/C=C(/C)C(=O)O[C@H]1[C@@H]2[C@H](C)C(=O)O[C@@H]2C[C@@H](C)[C@@H]2C=CC(=O)[C@]21C", "Potency": "active: 12.7 µM"}
{"smiles": "COP(=S)(OC)Oc1ccc(S(=O)(=O)N(C)C)cc1", "Potency": "inactive"}
{"smiles": "CN1CCc2cc(Cl)c(O)cc2[C@H]2c3ccccc3CC[C@@H]21", "Potency": "inconclusive: 16.8 µM [inhibitor, partial curve]"}
{"smiles": "Nc1ccc(Cl)cc1C(=O)c1ccccc1F", "Potency": "inactive"}
{"smiles": "CO[C@@H]1[C@@H](O)[C@@H](O[C@H]2CC[C@]3(C=O)C4CC[C@]5(C)[C@@H](C6=CC(=O)OC6)CC[C@]5(O)[C@@H]4CC[C@H]3C2)O[C@@H](C)[C@H]1O[C@@H]1O[C@H](CO[C@@H]2O[C@H](CO)[C@@H](O)[C@H](O)[C@H]2O)[C@@H](O)[C@H](O)[C@H]1O", "note": "(stereo partly drawn)", "Potency": "active: 2.75 µM"}
{"smiles": "CO[C@@H]1C[C@H](O[C@H]2CC[C@@]3(C)C(CCC4C3CC[C@]3(C)[C@@H](C5=CC(=O)OC5)[C@@H](OC(C)=O)CC43O)C2)O[C@H](C)[C@@H]1O[C@H]1O[C@H](CO[C@@H]2O[C@H](CO)[C@@H](O)[C@H](O)[C@H]2O)[C@@H](O)[C@H](O)[C@H]1O", "note": "(stereo partly drawn)", "Potency": "active: 0.346 µM"}
{"smiles": "CCN(CC)CCOC(=O)C(C)(c1ccccc1)c1ccccc1", "Potency": "inactive"}
{"smiles": "COC1(C[S@@](=O)c2ccccc2)CCN(CCc2c[nH]c3ccc(F)cc23)CC1", "Potency": "inconclusive: 20.5 µM [inhibitor, partial curve]"}
{"smiles": "CC(C)=CCOc1c2occc2cc2ccc(=O)oc12", "Potency": "inconclusive: 33.5 µM [inhibitor, single point]"}
{"smiles": "CCC1NC(=O)C2C(Cl)C(Cl)CN2C(=O)C(CC)NC(=O)CC(c2ccccc2)NC(=O)C(CO)NC1=O", "note": "(stereo not drawn)", "Potency": "inconclusive: 14.2 µM [inhibitor, single point]"}
{"smiles": "O=C1C(I)=CC(=C(c2cc(I)c(O)c(I)c2)c2ccccc2C(=O)O)C=C1I", "Potency": "inactive"}
{"smiles": "CCCCC(CC)COC(=O)c1ccccc1C(=O)OCC(CC)CCCC", "note": "(stereo not drawn)", "Potency": "inconclusive: 61.1 µM [inhibitor, single point]"}
{"smiles": "C#C[C@]1(O)CC[C@H]2[C@@H]3CC[C@H]4Cc5nc6nc7ccccc7n6cc5C[C@]4(C)[C@H]3CC[C@@]21C", "Potency": "active: 12.9 µM"}
